The target of the assay is GST-E6AP ligase (wild-type, bacterially expressed fusion protein) (human) (UniProt Q05086). The assay can be described thus: cell-based or functional assay.

Substance “recombinant free glutathione-S-transferase (GST) (a stretch of the chain, sequence left out)” had a K½ for decrease in the initial rate of polyubiquitin chain formation of 1 µM.
